Source: the supplement of paper PMC4967469

Legend:
Assay in all cases: Viability of human cancer cell lines after 72 h of drug (GDSC screen)
AZD6482 = compound: Cc1cc([C@@H](C)Nc2ccccc2C(=O)O)c2nc(N3CCOCC3)cc(=O)n2c1 [AZD6482]
Method: (§1)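 Human cancer cell lines in 384-well plates, medium with 10% serum, drug for 72 h over a 256-fold dose range (nine 2-fold or five 4-fold steps up to the top dose). Adherent lines were fixed and stained with the nucleic acid dye Syto60, suspension lines read with resazurin; signal relative to control wells, capped at 0 and 100%. One two-parameter sigmoid per drug and line, fitted in a mixed model over all curves with the slope shared within a line.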

BMN-673 = compound: Cn1ncnc1[C@H]1c2n[nH]c(=O)c3cc(F)cc(c23)N[C@@H]1c1ccc(F)cc1 [BMN-673]; conditions: top dose 10 µM; top dose inferred
Method: as §1

MLN4924 = compound: NS(=O)(=O)OC[C@@H]1C[C@@H](n2ccc3c(N[C@H]4CCc5ccccc54)ncnc32)C[C@@H]1O [MLN4924]; conditions: top dose 1 µM; top dose inferred
Method: as §1

XMD11-85h = compound: COc1cc(C(=O)NC2CCN(C)CC2)ccc1Nc1ncc2c(n1)N(C1CCCC1)CCC(=O)N2C(C)C [XMD11-85h]; conditions: top dose 10 µM; top dose inferred
Method: as §1

[1] = top dose 5 µM, screen: GDSC drug entry 1066, top dose inferred
[2] = top dose 5.12 µM, screen: GDSC drug entry 156

Cell Line	AUC (AZD6482; [1])	IC50 (AZD6482; [1])	AUC (BMN-673)	IC50 (BMN-673)	AUC (MLN4924)	IC50 (MLN4924)	AUC (XMD11-85h)	IC50 (XMD11-85h)	AUC (AZD6482; [2])	IC50 (AZD6482; [2])
DIFI (large intestine, adherent)	0.984	> 5 µM	0.9	> 10 µM	0.912	> 1 µM	0.986	> 10 µM		
DMS-53 (small cell lung carcinoma, adherent)	0.934	> 5 µM	0.752	3.55 µM	0.969	> 1 µM	0.975	> 10 µM	0.969	> 5.12 µM
DND-41 (T-cell leukaemia, suspension)	0.971	> 5 µM	0.681	1.86 µM	0.871	0.757 µM	0.903	> 10 µM	0.95	> 5.12 µM
EC-GI-10 (oesophagus, adherent)	0.892	> 5 µM	0.701	2.29 µM	0.56	0.0908 µM	0.97	> 10 µM	0.989	> 5.12 µM
EFM-192A (breast, adherent)	0.958	> 5 µM	0.969	> 10 µM	0.946	> 1 µM	0.977	> 10 µM	0.879	> 5.12 µM
EKVX (lung adenocarcinoma, adherent)	0.756	4.19 µM	0.93	> 10 µM	0.95	> 1 µM	0.932	> 10 µM	0.912	> 5.12 µM
EN (endometrium, adherent)	0.961	> 5 µM	0.946	> 10 µM	0.85	> 1 µM	0.982	> 10 µM	0.984	> 5.12 µM
ES3 (Ewing sarcoma, adherent)	0.937	> 5 µM	0.246	0.111 µM	0.815	0.584 µM	0.883	> 10 µM	0.953	> 5.12 µM
ES4 (Ewing sarcoma, adherent)			0.135	< 0.0391 µM	0.659	0.186 µM	0.948	> 10 µM	0.94	> 5.12 µM
ES5 (Ewing sarcoma, adherent)	0.919	> 5 µM	0.604	1.26 µM	0.8	0.569 µM	0.954	> 10 µM	0.912	> 5.12 µM
ES-2 (ovary, adherent)	0.985	> 5 µM	0.674	1.78 µM	0.888	0.885 µM	0.955	> 10 µM	0.991	> 5.12 µM
ESO26 (oesophagus, adherent)	0.984	> 5 µM	0.881	9.39 µM	0.982	> 1 µM	0.865	7.98 µM		
ESO51 (oesophagus, semi-adherent)	0.953	> 5 µM	0.978	> 10 µM	0.956	> 1 µM	0.969	> 10 µM		
ETK-1 (biliary tract, adherent)	0.908	> 5 µM	0.514	0.685 µM	0.831	0.751 µM	0.875	> 10 µM	0.961	> 5.12 µM
EW-1 (Ewing sarcoma, semi-adherent)	0.971	> 5 µM	0.231	0.113 µM	0.651	0.158 µM	0.986	> 10 µM	0.906	> 5.12 µM
EW-7 (Ewing sarcoma, semi-adherent)	0.773	1.72 µM	0.146	0.0606 µM	0.809	0.446 µM	0.965	> 10 µM	0.666	
EW-11 (Ewing sarcoma, adherent)	0.976	> 5 µM	0.597	1.25 µM	0.788	0.585 µM	0.913	> 10 µM	0.898	> 5.12 µM
EW-16 (Ewing sarcoma, adherent)	0.979	> 5 µM	0.488	0.579 µM	0.658	0.175 µM	0.934	> 10 µM	0.882	> 5.12 µM
EW-22 (Ewing sarcoma, adherent)	0.955	> 5 µM	0.102	< 0.0391 µM	0.761	0.342 µM	0.937	> 10 µM		
FTC-133 (thyroid, adherent)	0.896	> 5 µM	0.808	5.81 µM	0.923	> 1 µM	0.972	> 10 µM	0.956	> 5.12 µM
Farage (B-cell lymphoma, suspension)	0.652	0.755 µM	0.992	> 10 µM	0.928	> 1 µM	0.992	> 10 µM	0.827	2.4 µM
GB-1 (glioma, adherent)	0.98	> 5 µM	0.507	0.655 µM	0.749	0.376 µM	0.94	> 10 µM	0.901	> 5.12 µM
GI-1 (glioma, adherent)	0.875	4.55 µM	0.298	0.174 µM	0.699	0.221 µM	0.945	> 10 µM	0.707	1.2 µM
GI-ME-N (neuroblastoma, adherent)	0.918	> 5 µM	0.591	1.21 µM	0.728	0.358 µM	0.78	5.77 µM	0.881	> 5.12 µM
GR-ST (lymphoblastic leukaemia, suspension)	0.841	4.61 µM	0.367	0.248 µM	0.861	> 1 µM	0.872	> 10 µM	0.902	> 5.12 µM
GT3TKB (stomach, adherent)	0.866	3.6 µM	0.319	0.21 µM	0.387	0.0318 µM	0.965	> 10 µM	0.983	> 5.12 µM
H9 (lymphoid neoplasm, suspension)	0.992	> 5 µM	0.787	3.55 µM	0.944	> 1 µM	0.887	7.76 µM	0.989	> 5.12 µM

Lines with a small IC50 respond at low doses; a limit (>, <) means that the fit lies beyond the doses tested. The AUC spans the tested range (256-fold, ending at the top dose) of the same fit: 1 means no effect, lower means more sensitive. Where the top dose is marked as inferred, it was derived from the fitted curves, not read from the paper. For some of these results: An entry number marks a drug with two screens in the source, which often give different values.
